Laboratory results published in PubChem BioAssay AID2100 (National Center for Advancing Translational Sciences (NCATS), 2009).
Values joined by “and” are separate entries in the source; they are usually repeats but may differ in a detail not shown here. Identical values can stand only once. About 1,200 (0.4%) of roughly 300,000 compounds were called active. This list was built around the results that the source calls inconclusive (neither active nor inactive); the mix of calls is not that of the screen. The call rests on the fitted dose curve; in most records, active means well fitted inhibition curve with a large enough effect; inconclusive means small, poorly fitted or top-dose-only effect, or another doubt; inactive means no such curve, though single readings can be large or run the other way. Potencies beside an inconclusive call are fits to weak or partial responses and may not hold up.
Potency means the concentration at half of the fitted maximal effect.

These compounds were tested against Lysosomal alpha-glucosidase (Homo sapiens) (UniProt P10253) (assay: qHTS Assay for Inhibitors and Activators of Human alpha-Glucosidase Cleavage of Glycogen). Settings: recombinant GAA, glycogen substrate, Amplex Red glucose oxidase fluorescence; series mostly up to 76.4 µM.
Summary of the method: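 Recombinant human enzyme (4 nM); glycogen substrate; 37 C, 40 min, pH 5.0. Readout: coupled glucose oxidase/Amplex Red fluorescence.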
`Cc1ccc(S(=O)(=O)c2nnn3c2nc(N2CCC(C)CC2)c2cc(Cl)ccc23)cc1C` was tested, and the Potency was “inactive”.
With `O=[N+]([O-])c1ccccc1N/N=C/c1c[nH]c2ccccc12` the Potency was inconclusive: 22.4 µM [inhibitor, partial curve].
For `CC(/C=C/c1ccccc1)=N\Nc1nc2c(c(=O)[nH]c(=O)n2C)n1CCO`, the Potency was inconclusive: 15.8 µM [inhibitor, partial curve].
For `Cc1ccccc1Nc1c(-c2c[nH]c3ccccc23)nc2ccccn12`, the Potency was inconclusive: 20 µM [inhibitor, partial curve].
For `O=C(Nc1ccc(N2CCOCC2)nc1N1CCOCC1)c1cccc(C(F)(F)F)c1`, the Potency was inconclusive: 7.88 µM [inhibitor, full curve].
For `N=c1oc2c3c4c(cc2cc1C(=O)Nc1ccccc1)CCCN4CCC3`, the Potency was inconclusive: 50.1 µM [activator, single point].
With `COc1cc(/C=N/Nc2nc(N3CCCC3)nc(N3CCCC3)n2)ccc1O` the Potency was inconclusive: 14 µM [inhibitor, partial curve].
For `O=C(NN=C1CCCC1)c1cc(Br)ccc1O`, the Potency was inconclusive: 14.1 µM [inhibitor, partial curve].
With `Cc1ccc2oc(C(=O)Nc3ccc(S(=O)(=O)N4CCCCC4C)cc3)cc(=O)c2c1` (stereo not given) the Potency was active: 7.08 µM.
With `Cc1nn(-c2ccccn2)c2nc(-c3cccs3)cc(C(=O)N3CCOCC3)c12` the Potency was “inactive”.
For `O=C(Cc1ccc2c(c1)OCCO2)N1CCN(S(=O)(=O)c2cccs2)CC1`, the Potency was “inactive”.
`CCOc1cc(-c2cc(N)n[nH]2)cc(OCC)c1OCC` was tested, and the Potency was inconclusive: 28.2 µM [inhibitor, partial curve].
For `COc1cccc(/C=C2/C(=O)NN(c3ccc(F)cc3)C2=O)c1`, the Potency was inconclusive: 10 µM [inhibitor, single point].
For `CSc1n[nH]c(=S)n1N`, the Potency was inconclusive: 50.1 µM [inhibitor, single point].
For `Cc1ccc(S(=O)(=O)NNC(=O)c2snnc2C)cc1`, the Potency was active: 25.1 µM.
In the case of `O=C(Nc1nc2c(s1)CN(Cc1ccccc1)CC2)C1CCCC1`, the Potency is reported as inconclusive: 39.8 µM [activator, partial curve].
With `CC1CCCN(C(=S)SCC(=O)c2cc(Br)cc(Br)c2O)C1` (stereo not given) the Potency was inconclusive: 31.4 µM [inhibitor, partial curve].
With `CCOc1ccc(N2CC(C)Cn3c2nc2c3c(=O)n(Cc3c(F)cccc3Cl)c(=O)n2C)cc1` (stereo not given) the Potency was “inactive”.
For `CCOc1cc(C2C(C#N)=C(N)OC(C)=C2C(C)=O)cc(Br)c1O` (stereo not given), the Potency was inconclusive: 22.4 µM [inhibitor, single point].
With `CCOC(=O)N1CCN(Cc2nc3cc(NC(=O)c4ccccc4Cl)ccc3n2C(C)C)CC1` the Potency was “inactive”.
With `Cc1ccc2nc(-c3cccs3)c(Nc3ccc4c(c3)OCCO4)n2c1` the Potency was inconclusive: 5.01 µM [inhibitor, full curve].
With `CC(=O)Nc1ccc(S(=O)(=O)NNC(=S)NCC2CCCO2)cc1` (stereo not given) the Potency was inconclusive: 50.1 µM [inhibitor, single point].
In the case of `C/C(=N/N1CCN(Cc2cccc3ccccc23)CC1)c1ccco1`, the Potency is reported as inconclusive: 11.2 µM [inhibitor, partial curve].
`CC(C)(C)c1ccc(OCCCC(=O)NC2=NCCS2)cc1` was tested, and the Potency was inconclusive: 10 µM [inhibitor, single point].
For `CCOc1ccc(CC2NCCc3cc(OCC)c(OCC)cc32)cc1OCC` (stereo not given), the Potency was inconclusive: 35.5 µM [activator, partial curve].
In the case of `CNC(=O)CC1C(=O)N(c2ccc(OC)cc2)C(=S)N1NC(=O)c1cccc(F)c1` (stereo not given), the Potency is reported as inconclusive: 22.4 µM [inhibitor, partial curve].
With `COc1ccc(Nc2nc(-c3sc(C)nc3C)cs2)cc1` the Potency was inconclusive: 20 µM [inhibitor, partial curve].
With `Cc1[nH]c(=S)c(C#N)c(-c2ccco2)c1C(=O)N(C)C` the Potency was inconclusive: 31.4 µM [inhibitor, single point].
`COc1cc(/C=C/C(=O)OCC(=O)Nc2ccc(S(N)(=O)=O)cc2)ccc1O` was tested, and the Potency was inconclusive: 14.1 µM [inhibitor, partial curve].
For `c1ccc2c(c1)Nc1nccnc1S2`, the Potency was inconclusive: 35.5 µM [inhibitor, partial curve].
With `CCOC(=O)c1c(N)sc2c1CCC(C)C2` (stereo not given) the Potency was inconclusive: 25.1 µM [inhibitor, partial curve].
With `COc1ccc(C2CC(O)(c3ccccc3)Oc3cc(OC)c(OC)c(OC)c32)cc1` (stereo not given) the Potency was inconclusive: 28.2 µM [inhibitor, single point].
`O=C(O)c1cccc2c(/C=N/Nc3ccccn3)c[nH]c12` was tested, and the Potency was inconclusive: 17.8 µM [inhibitor, partial curve].
`COCC(C)n1c(C)cc(C(=O)CSc2ncccn2)c1C` (stereo not given) was tested, and the Potency was inconclusive: 28.2 µM [activator, single point].
With `Cn1c(SCc2cccnc2)nc2c(c1=O)SCC2` the Potency was “inactive”.
With `CCOP(=O)(OCC)c1nc(-c2ccc(Cl)cc2Cl)oc1N1CCCCC1` the Potency was “inactive”.
`C[C@H](C(O)c1ccccc1)N(C)C(=O)CN` (stereo not given in full) was tested, and the Potency was inconclusive: 35.5 µM [inhibitor, partial curve].
`COc1ccc(NC(=O)n2ncc3cc(Cl)ccc32)cc1OC` was tested, and the Potency was inconclusive: 35.5 µM [inhibitor, partial curve].
In the case of `COc1cc(/C=N/NC(=O)Cn2cnc3ccccc3c2=O)ccc1O`, the Potency is reported as inconclusive: 39.8 µM [inhibitor, single point].
`CCn1c(O)c(C#N)c(C)cc1=O` was tested, and the Potency was “inactive”.
In the case of `CC(/C=C/c1ccccc1)=N\Nc1nc(-c2ccccc2)cs1`, the Potency is reported as inconclusive: 35.5 µM [inhibitor, single point].
With `Cc1nn(-c2ccccc2)c2[nH]c(=O)c(CNc3ccc4c(c3)OCCO4)cc12` the Potency was inconclusive: 6.26 µM [inhibitor, partial curve].
With `CC(C)NC(=S)N/N=C/c1c[nH]c2ccccc12` the Potency was “inactive”.
For `COc1ccc(CNc2oc(/C=C/c3cc(OC)c(OC)c(OC)c3)nc2C#N)cc1`, the Potency was inconclusive: 50.1 µM [inhibitor, partial curve].
In the case of `CCOC(=O)C1CCCN(C(=S)Nc2ccc(Nc3ccccc3)cc2)C1` (stereo not given), the Potency is reported as active: 39.8 µM.
For `COc1cccc(NC(=S)NNC(=O)CCn2cc([N+](=O)[O-])cn2)c1`, the Potency was inconclusive: 7.03 µM [inhibitor, partial curve].
`Cc1ccc(-n2cc(CN(C)Cc3nccn3C)c(-c3ccc(F)cc3)n2)cc1` was tested, and the Potency was “inactive”.
In the case of `C/C(=N\NC(=S)NC(C)C)c1ccccc1OC(F)F`, the Potency is reported as inconclusive: 35.5 µM [inhibitor, single point].
With `c1ccc(-c2nc(NCc3cccnc3)c3ccccc3n2)cc1` the Potency was “inactive”.
In the case of `Cc1[nH]c(=S)n(CC2CCCO2)c1C` (stereo not given), the Potency is reported as inconclusive: 22.4 µM [inhibitor, partial curve].
In the case of `C/C(=N\NC(=O)c1ccncc1)c1cccnc1`, the Potency is reported as inconclusive: 39.8 µM [inhibitor, single point].
`CC1CN(C(=O)N2CCC(C(=O)NCc3ccccc3F)CC2)c2cc(Cl)ccc2O1` (stereo not given) was tested, and the Potency was “inactive”.
`CCCNC(=O)c1ccc2c(=O)c(O)c(-c3ccsc3)[nH]c2c1` was tested, and the Potency was inconclusive: 7.94 µM [inhibitor, partial curve].
For `COc1ccc(COC(=O)C2=C(C)NC(=O)NC2c2cccc(OC)c2OC)cc1` (stereo not given), the Potency was active: 39.8 µM.
For `O=c1c2sccc2nc(SCc2cc(=O)n3cc(Br)ccc3n2)n1Cc1ccccn1`, the Potency was “inactive”.
`CC(C)NC(=O)N(O)C1N(Cc2ccc3c(c2)OCO3)C(=S)SC1(C)C` (stereo not given) was tested, and the Potency was inconclusive: 3.52 µM [inhibitor, full curve, poor fit].
With `Oc1ccc(NCc2ccccc2OCc2ccccc2)cc1` the Potency was “inactive and inconclusive: 28.2 µM [activator, partial curve]”.
`Cc1ccc(Nc2cc(C)nc(NCc3ccccc3)n2)cc1` was tested, and the Potency was “inactive”.
With `CN1C(=O)c2ccccc2Sc2ccc(NC(=O)N3CCN(c4ccc(F)cc4)CC3)cc21` the Potency was inconclusive: 15.8 µM [inhibitor, partial curve, poor fit].
For `CCOC(=O)c1c(CSc2ccccc2)n(C)c2cc(Br)c(O)c(CN(C)C)c12`, the Potency was inconclusive: 8.91 µM [inhibitor, partial curve].
In the case of `CC(C)(C)C(=O)NC(=S)NNC(=O)c1ccc(Cl)cc1Cl`, the Potency is reported as inconclusive: 50.1 µM [inhibitor, single point].
In the case of `COc1cc(Cl)cc(/C=N/NC(N)=O)c1O`, the Potency is reported as inconclusive: 25.1 µM [inhibitor, single point].
In the case of `Cc1ccc2nc(-c3ccc(C)s3)c(Nc3ccc4c(c3)OCCO4)n2c1`, the Potency is reported as inconclusive: 14.1 µM [inhibitor, partial curve].
`COc1ccc(-c2n(CC(=O)OC3CC(C)CCC3C(C)C)c3ccccc3[n+]2C)cc1` (stereo not given) was tested, and the Potency was “inactive”.
For `COc1ccc(NCc2ccccc2[N+](=O)[O-])cc1OC`, the Potency was inconclusive: 28 µM [inhibitor, single point].
In the case of `COc1ccc(NC(C#N)c2ccccc2OCc2ccccc2)cc1` (stereo not given), the Potency is reported as inconclusive: 7.08 µM [inhibitor, partial curve].
`CCN(CC)S(=O)(=O)c1cc([N+](=O)[O-])ccc1NNC(=O)Nc1ccc(Cl)c(Cl)c1` was tested, and the Potency was inconclusive: 17.6 µM [inhibitor, single point].
For `CC(C)OCCCn1c(-c2ccc(Br)cc2)c[nH]c1=S`, the Potency was inconclusive: 22.4 µM [inhibitor, partial curve].
`COc1ccc(/C=N/Nc2cc(C)nc3ccc(OC)cc23)c(OC)c1` was tested, and the Potency was “inactive”.
With `COc1cc(C(=O)NCc2nnc(SCC(=O)NCCc3ccccc3)o2)cc(OC)c1OC` the Potency was inconclusive: 28.2 µM [inhibitor, single point].
